Reference: PubChem BioAssay (NCI)
Where “and” joins values, the source holds several entries; their conditions need not be identical. Equal values may be shown once.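 These data come from cells grown in 96-well plates and exposed to compound for 48 hours at five concentrations. At the GI50, growth is halved. The concentration for full growth arrest is given as TGI.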

These compounds were tested on NCI-H322M lung (assay: growth of human tumour cells (NCI), 48 h).
In the case of `C[C@@H](O)C(=O)N1[C@@H]2CC3CC[C@]2(CS1(=O)=O)C3(C)C`, the TGI was > 100 µM. For `O=[N+]([O-])c1ccc(S[C@@H]2[C@H]3c4c(-c5ccccc5)[nH]c(-c5ccccc5)c4[C@@H]2C[C@H]3Cl)cc1`, the TGI was > 100 µM. `CCCC(=O)Nc1cc(C(=O)N2C[C@@H]3C[C@]34C2=CC(=O)c2[nH]cc(C)c24)n(COC)c1` was tested, and the GI50 was 7.47 µM and the TGI was 34.8 µM and 63.9 µM. `CC(C)=CCC[C@@H](C)C1=C(Nc2ccccc2Cl)C(O)=C(C)C(=O)C1=O` was tested, and the TGI was 26.1 µM. With `Nc1nc2c(c(=O)[nH]1)NC(CO)CN2` (configuration not stated) the TGI was > 100 µM. `O=C(c1ccc2ccccc2c1)c1c(C(F)(F)F)n([O-])c2cc(F)c(F)cc2[n+]1=O` was tested, and the GI50 was 4.45 µM and the TGI was 14.6 µM. With `CCCCc1c2c(nc3c1CCc1cc4cc5c(nc4nc1-3)-c1nc3c(c(CCCC)c1CC5)CCCC3)CCCC2` the TGI was > 100 µM. In the case of `CCCCC1CC(c2cccc([N+](=O)[O-])c2)=NO1` (configuration not stated), the TGI was > 100 µM. In the case of `COC(=O)[C@H]1[C@@H](C(C)C)O[C@@H](C(C)C)O[C@H]1C(F)(F)F`, the TGI was > 100 µM. With `COc1cccc(CC(C)NCC(O)c2ccc(O)c(O)c2)c1` (configuration not stated) the TGI was > 100 µM. `C/C(=N\NC(=S)N1CCCCC1)c1cccc(C)n1` was tested, and the TGI was 5.53 µM. `CCOC(=O)c1c(N2CCCC2)ncn(-c2ccccc2)c1=S` was tested, and the TGI was > 100 µM. `C/C(=N\O)c1cccc(Nc2cc(-n3ccnn3)c3ccccc3n2)c1` gave a GI50 of 13 µM and a TGI of 34 µM. In the case of `N#Cc1nc(CCCCCN2C(=O)c3ccccc3C2=O)oc1N`, the TGI was > 100 µM. For `O=C(/C=C/c1ccccc1)CC1OC(=O)c2ccccc21` (configuration not stated), the TGI was > 100 µM. For `CC[N+](C)(CC)CCC(O)(c1ccccc1)c1ccccc1`, the TGI was > 100 µM. In the case of `CCOC(=O)C1(C(=O)OCC)[C@H](c2ccccc2)C2=NO[C@@H]3CCC[C@H]1[C@H]23`, the TGI was > 100 µM. For `COc1ccc2c(c1)/C(=C\c1cccnc1)C(=O)N2`, the GI50 was 21.9 µM and the TGI was 45.4 µM. Compound `O=C(Nc1cccc([N+](=O)[O-])c1)C(=O)C(C(=O)c1ccccc1-c1ccccc1)C1OC(=O)c2ccccc21` (configuration not stated) has a TGI of 56.1 µM. `O=C1CCC2(CCO1)OCCO2` was tested, and the TGI was > 100 µM. In the case of `CCn1c(C(=O)N(C2CC2)C2CC2)cc2c3c(ncn3C)c(Nc3cc(C)n(C)n3)nc21`, the GI50 was > 52 µM and the TGI was > 100 µM. `CC(=O)N[C@@H]1C(O)CN2C(=O)C(=O)O[C@H](C(O)CO)[C@@H]12` (some centres not stated) was tested, and the TGI was > 100 µM. For `CC(C)=CCC/C(C)=C/CC/C(C)=C/Cc1c(O)c2ccccc2oc1=O`, the TGI was > 100 µM. In the case of `O=C1C(c2c[nH]c3ccccc23)=C(c2c[nH]c3ccccc23)C(=O)N1O`, the GI50 was > 25 µM and the TGI was > 25 µM. For `O=C(CCN1CCCC1)Nc1ccc2sc3ccccc3c(=O)c2n1`, the TGI was > 31.6 µM. With `CCOC(=O)C(=[N+]=[N-])C(=O)Nc1nn2nnnc2c2ccccc12` the TGI was > 100 µM. With `Oc1cc(O)c(Oc2cccc(O)c2O)c(O)c1` the TGI was > 100 µM. With `CN(C)/N=C/c1cn(C)c(=O)n(C)c1=O` the TGI was > 100 µM. With `O=C1C=CC(=O)C(CNc2ccc(C(=O)OC34CC5CC(CC(C5)C3)C4)cc2)=C1` the TGI was 40.9 µM. In the case of `CC[N+]1(C)CCC(O)(/C=C/c2ccc(OC)cc2)C(C(=O)/C=C/c2ccc(OC)cc2)C1` (configuration not stated), the TGI was 35.1 µM. With `COc1ccc(-c2nc3sc(-c4ccc(Cl)cc4)cn3n2)cc1` the GI50 was 1.76 µM and the TGI was > 50 µM. Work on `CCOC(=O)c1c(CN2CCNCC2)nc2ccccc2c1-c1ccccc1` yielded a TGI of 28.4 µM. For `NC(=S)N/N=C\c1ccc(OCc2cccc(COc3ccc(/C=N/NC(N)=S)cc3)n2)cc1`, the TGI was 57.1 µM. In the case of `O=C1NC(=O)/C(=C/c2ccc(S(=O)(=O)N/N=C/c3ccc(Cl)cc3)cc2)N1`, the TGI was > 100 µM. `O=C1c2ccc([N+](=O)[O-])cc2-c2c1c1ccccc1c(=O)n2CCCNCCCNCCCn1c2c(c3ccc([N+](=O)[O-])cc3c1=O)C(=O)c1ccccc1-2` showed a GI50 of 6.04 µM and a TGI of 23 µM. `CCCc1c(CC)c(=N)c2ccccc2n1C` was tested, and the GI50 was > 100 µM and the TGI was > 100 µM. In the case of `COc1cc2c(cc1OCCCC(=O)Nc1cc(C(=O)Nc3cc(C(=O)Nc4cc(C(=O)NCCCN(C)C)n(C)n4)n(C)n3)n(C)n1)N=CC1CCCN1C2=O` (configuration not stated), the TGI was 53.5 µM. With `O=C(NCc1cccc(C(F)(F)F)c1)c1cc2sccc2nc1C(F)(F)F` the TGI was > 100 µM. `COc1cc(/C=C/C(=O)c2c(=O)o[nH][n+]2-c2ccccc2)ccc1[O-]` gave a TGI of 16.3 µM. `COc1ccc(NC(=O)C(=O)Cc2nc3ccc([N+](=O)[O-])cc3[nH]c2=O)c(OC)c1` was tested, and the TGI was > 100 µM. `O=C([CH-]C(=O)c1ccccc1)c1ccccc1.O=C([CH-]C(=O)c1ccccc1)c1ccccc1.O=C([CH-]C(=O)c1ccccc1)c1ccccc1.[Nd+3].[OH3+]` gave a GI50 of 4.99 µM and a TGI of 33.2 µM. `COc1ccc(-c2oc3c(OC)c(OC)c(OC)c(O)c3c(=O)c2OC)cc1OC` was tested, and the TGI was > 100 µM. With `O=C(c1ccc(Cl)cc1)c1ccc(OCCCCCCCCCCOc2ccc(C(=O)c3ccc(Cl)cc3)cc2)cc1` the TGI was > 100 µM. `Cc1ccccc1-n1c(C)nc2c1C(=O)c1ccccc1C2=O` was tested, and the TGI was > 100 µM. `C=C1SC(=Nc2c(C)cc(C)cc2C)N(C(=O)c2sc3ccccc3c2Cl)C12CCCCC2` was tested, and the GI50 was > 100 µM and the TGI was > 100 µM. In the case of `CC1OC2=N[C@@H]1C(=O)N[C@@H](C(C)C)C1=N[C@H](C(=O)N[C@@H](C(C)C)C3=N[C@H](C(=O)N[C@@H](C(C)C)C4=N[C@H](C(=O)N[C@H]2C(C)C)C(C)O4)C(C)O3)C(C)O1` (some centres not stated), the TGI was > 10 µM. In the case of `Cc1c(S(C)(=O)=O)c(-c2cc(F)cc(N3CCN(c4ccc(NS(=O)(=O)c5ccc(N[C@H](CCN6CCC(C(=O)OCCCP(=O)(O)O)CC6)CSc6ccccc6)c(S(=O)(=O)C(F)(F)F)c5)cc4)CC3)c2)c(-c2ccc(Cl)cc2)n1C(C)C`, the GI50 was > 100 µM and the TGI was > 100 µM. With `Oc1ccc(C(c2ccc(O)cc2)c2ccc(Cl)cn2)cc1` the GI50 was 0.0964 µM and the TGI was 0.456 µM. `Cc1ccc(C(=O)N/N=C(\N=Nc2cccc(Cl)c2)c2ccc(N(CCC#N)CCC#N)cc2C)cc1` was tested, and the TGI was > 100 µM. `Cn1nc2n(c1=O)CCCN2` was tested, and the TGI was > 100 µM. For `CCc1c(Cc2cccc3ccccc23)n2c(nc1=O)SCC2OCCO` (configuration not stated), the TGI was > 100 µM. `COc1ccc(N(C)C(=O)N(C)c2ccc([N+](=O)[O-])cc2)cc1` was tested, and the TGI was > 100 µM. In the case of `CN(C)c1ccc([O-])cc1.CN(C)c1ccc([O-])cc1.CN(C)c1ccc([O-])cc1.CN(C)c1ccc([O-])cc1.[Ti+4]`, the GI50 was > 100 µM and the TGI was > 100 µM. With `N=c1oc2ccc3ccccc3c2cc1C(N)=O` the TGI was > 100 µM. In the case of `CC1CC2CC(=O)CC3(C1)C2CCCN3CCCO` (configuration not stated), the TGI was > 100 µM. With `Clc1ccc(N2N=C(c3cccc(Nc4ccncc4)c3)CC2c2ccc3c(c2)OCO3)cc1` (configuration not stated) the GI50 was 2.13 µM and the TGI was 6.06 µM. For `C/C(=C\c1ccccn1)c1ccccn1`, the TGI was > 100 µM. With `O=[N+]([O-])c1c(Br)cc(Br)c2c1Nc1c(ccc(Cl)c1Cl)S2` the TGI was 26 µM. With `CC(=O)O[C@@H]1C[C@@]23C[C@@]24CC[C@H](OC2OCC(O)C(O)C2O)C(C)(C)[C@@H]4CC=C3[C@]2(C)C[C@@H]3OC4(C[C@@H](C)[C@@H]3[C@@]12C)OC(O)[C@@]1(C)O[C@@H]41` (some centres not stated) the TGI was > 100 µM. In the case of `CCCCc1cc2c(C)cc(=O)oc2c(O)c1O`, the TGI was > 100 µM. `COc1ccccc1N=C(N)N/N=C/c1c[nH]c2ccccc12` showed a TGI of 22.5 µM. With `CC(=O)/C(=C/n1c(=S)[nH]c2ccccc21)C(=O)Nc1ccccc1C` the TGI was > 100 µM. In the case of `OCCCOC(c1ccccc1)(c1ccccc1)c1ccccc1`, the TGI was > 100 µM. For `COc1cc(/C=C2\CCC/C(=C\c3cc(OC)c(O)c(OC)c3)C2=O)cc(OC)c1O`, the GI50 was 6.37 µM and the TGI was 75 µM and > 100 µM. `CN(C)CCNC(=O)c1ccc(NCCCN(C)CCCNc2ccc3c(=O)n(CCN(C)C)c(=O)n4c5ccccc5c(=O)c2c34)c2c(=O)c3ccccc3[nH]c12` was tested, and the TGI was 0.377 µM. `CCCCS(=O)CCC(N)C(=O)O` (configuration not stated) was tested, and the TGI was > 100 µM.
